From the supplement of paper PMC10126150
Values marked as one replicate rest on one cluster of the flow cell; about a third of the high ones do not repeat.

Test system: ATP
Assay: switch fluorescence ratio, 500 uM ATP over buffer (Cy3 cluster intensity, sum of 5 cycles each) (fold (ratio)); higher = stronger signal-on switching upon ATP binding; sequences stand for … in TCGTCGGCAGCGTCAGATGTGTATAAGAGACAGTTTTTTTTTTTTTTTTTTTTTTTTT…TC
Settings: aptamer strand: ATP DNA aptamer (quencher-CACCTGGGGGAGTATTGCGGAGGAAGG + anchor), 100 nM annealed; ATP concentration: 500 uM; one replicate
Procedure, shortened: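 After annealing to 100 nM quencher-labelled ATP aptamer, Cy3-labelled switching-strand clusters on a modified Illumina MiSeq flow-cell were imaged in selection buffer. A second image followed after 15 min with 500 uM ATP at 22 °C, and five such buffer/ATP cycles were done, each separated by NaOH stripping and re-annealing. The fluorescence ratio, averaged per switch-domain sequence, is summed target-cycle over summed buffer-cycle Cy3 intensity per cluster, with clusters outside 100-1000 RFU excluded.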
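Note: ATP exposure 15 min at 22 °C before imaging.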

Sequence	switch fluorescence ratio
ATTCTTAAA	1.04
TTGCCTCTAT	0.948
GGCCGATGGC	0.982
TATGTGTTAC	0.997
TGCTACTGCC	1.05
GTAGACGAGA	0.927
ATGAGTCTCT	1.04
TTTGTCATCT	1.03
CAGCGCAGCC	0.998
AAAAGTATGT	0.993
ATAGGTAACG	1.01
TCCAATGTAC	2.79
CTACATTGT	0.963
CCTTAAGGTA	0.997
CGATAGCCGA	1.01
CTAATTTTAC	0.998
TCGGGCCGGA	2.08
GATAGTATCA	1.07
ATCCCGGCGT	1
AAGTACATT	1.27
GGTCTTGGA	0.992
GCGCTCTCCT	1.29
GAAAGATGAA	0.943

Sequence	switch fluorescence ratio
CGGGGCTGTC	0.924
AACGTTA	1.03
CGAGTGCGGT	1.04
GGAATTAGGC	0.96
CCGGAACTTA	1.1
ACCTCTTATG	1.04
TCCTGTTACT	1
TGGTAAGTGT	0.997
AACTTGCATT	0.987
CGTGAATGAT	1.03
CGCTGGGTGA	0.999
TGTGTGCGAA	0.99
CGAGTCGCTC	0.994
AGTAGGGG	0.99
GCTGGTTTCA	1.02
GAGGAAGTGC	0.97
CATCGGGTCA	0.988
GAGCGGGGCA	1
AGGCACACCG	1.06
GCCGAGACCG	1.13
TCCATTGGTC	1.08
AGGTATGGGA	1.01
TTTATTGTAG	0.94

Sequence	switch fluorescence ratio
CCGATGGTAT	1.98
CATAGGCATC	1.07
GGTATAAACA	1.01
CGGCTTGGAC	1.05
ACCATAATAG	1.04
TTTGAACGGC	1
TCTTCTTGGG	0.982
AGGACGGGGC	1.02
GCTGGCATAC	2.32
TGTGTTTTAT	0.985
ACTATTACAA	1.13
GCGAACCCGA	1.03
TTAGCTTCAG	1.05
GTGACAGCGG	0.998
CGGATCGTAC	1.29
TGGCTTCACA	1.01
TGAAATACGG	1.1
ACTATGTATT	0.991
TAGACTGGGT	0.981
TGTTCTCCTT	1.01
CATTGTCCTT	1.01
GGAGTTCCTC	1.01
TAGATGTTAT	1.01

Sequence	switch fluorescence ratio
TATTTTAGCA	1.04
GATAATGTAG	1.03
CTAACGCTTC	2.41
CTTACCTGTG	0.959
GGCCACGTTG	1.01
ACGAGACATC	1.07
GGACACCCTT	1.06
TAGAAATTTT	1.03
GCTGTTGGT	1.01
TGATGGAGCT	1.06
AAATTAGCTA	1.01
AGTCGAGGCC	1.04
AGCCAGCGAG	1.03
TTGAAGCCCA	1.15
AGGCGTTTTT	0.99
ATGTTCTTAT	0.967
TACGTCAGAA	1.06
CTAGAGCCAT	1.08
GGCTCTGCCT	1.01
AGGTCGGTAA	0.994
AGCGGTAACC	1.04
ATTAACTCT	1.01
TATGACAGGC	0.921

Sequence	switch fluorescence ratio
ATAATCGTTT	0.989
ATGTGATGGG	1.02
TGAAAAATG	0.925
TGTAGTGGCG	1.1
AGATTCGGTG	0.987
CTAAAATTAG	0.998
TAAAGTGCT	0.985
AATTGCTCCA	1.03
GAAATCACAT	1.04
TTTTCTAGTG	1.05
TCTTTTGGCT	1.05
CCACGTTCTT	1.03
GATTTACCAA	1.01
TATTTATGAG	1.01
GGGTCCCAAA	1.01
ATTCCACAGC	1.86
CCATTCTGCT	1.01
CTTCGCTTAA	2.84
TAAAAATCCA	1.01
CCAGACGTCA	1.03
CAGGTAATGC	1.52
GTCGTGTCGG	1.02
AAGCCAGGA	1.03

Sequence	switch fluorescence ratio
CCTCGGTCTT	1.57
ACACGGAGAT	1
GTGGGACCAA	0.965
ATCAATGATG	1.01
GATTCGCGGG	0.993
GACTGGGTTA	1.04
AAGTACTTCG	1.2
TTTTCGAAGT	1
GTAATTGAGC	1
TATCGCTGCC	1.12
AGCGGGAGCG	1.02
TTGCTTACTA	1.03
TCGAGGACTT	1.01
GTTGAGTATG	0.995
GAGTCACATG	1.03
TGCAACTACA	1.12
CTATGTGAAA	0.934
AACAAGTGGT	1
GCACTTAGT	1.07
TCCCGGGGTC	1.31
GGTGTGAGGC	1.08
GTGCCAGGGG	0.947
AAAAATGATC	0.97

Sequence	switch fluorescence ratio
GGTAAGAGGA	0.972
GTGGGATCAC	1.03
TCTAGTGCAT	1.05
GGTCCAAGGT	0.993
TCGCCGACAG	1.06
CATAGAGGGA	1.01
GATACGGCGC	1.01
GAGAAATGTA	0.955
CGCGCGAGGA	0.996
TAGAATGGGT	0.994
ACACAAGGGT	1.04
ATCCTCGTC	1.09
TTTCCAGTTG	1.01
GTAGGAGGAT	0.95
GATTGGCATT	0.969
GGAGAGAAAA	1.04
TATATTTGCA	0.985
GCTGCACAA	1.08
CGAGTCAAAC	1.34
